The campaign covered roughly 94,000 compounds. About 6,200 (6.6%) were called active. The inconclusive results got no clear call from the source; some entries with a clear call stand among them for comparison. Calls come from the whole dose curve; as a rule, active = well fitted inhibition curve with a large enough effect; inconclusive = small, poorly fitted or top-dose-only effect; inactive = flat fitted curve, though single readings scatter. Potencies of inconclusive entries are doubtful fits and often do not repeat.
Assay: Cytotoxic Profiling in HEK 293 Cell Line of Diverse Libraries Using Quantitative High-Throughput Screening; note: nearly all actives have a fitted effect of over 60% in size
Details: HEK 293 viability, ATP luminescence (CellTiter-Glo), 48-72 h; activity change, negative = cytotoxicity: at 115 µM (top of the series) unless noted; series mostly up to 115 µM
How it was run: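 HEK 293 cells seeded at 250 cells/well were exposed to compound for 48 or 72 hr at 37 degree Celsius. Viability taken as ATP content by CellTiter-Glo luminescence.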
% is set by controls: 0 for no effect and ±100 for the full control effect; potency is the fitted concentration of half-maximal effect; tags give direction and shape of the fitted curve.

Structure (SMILES)	Potency	activity change, negative = cytotoxicity	outcome
COc1cccc(C(=O)N2CCC(N3C(=O)c4c(c(C)nn4-c4ccccc4)C3C)C2)c1 (stereo unspecified)	active: 35.5 µM		
Cn1c(CO[C@H]2CN(Cc3ccc4c(c3)OCCO4)C[C@H]2F)nc2ccccc21	inconclusive: 89.1 µM [inhibitor, partial curve]		
O=C(NC1CCCCC1)c1cn2cc(-c3cccc(C(F)(F)F)c3)sc2n1		inactive: -2.23%	
COc1ccc(CNC(=O)[C@@H](C)C2CC[C@@]3(C)CC[C@H](NC(=O)COc4ccccc4)[C@@H](C)[C@@H]3[C@H]2O)cc1 (stereo partly specified)	active: 22.4 µM		
CC(C)c1ccc(C(=O)NCc2c[nH]c3ncccc23)cc1	inconclusive: 112 µM [inhibitor, partial curve, poor fit]		
Cc1ccc(C2Cn3nnc(C(=O)N4CCN(C(=O)c5ccc(N(C)C)cc5)CC4)c3CO2)cc1 (stereo unspecified)		inactive: -14.5%	
CC1(COc2ccc3[nH]ccc3c2)COc2ccc(C(=O)NC3CC3)cc2N1 (stereo unspecified)	inconclusive: 100 µM [inhibitor, partial curve]		
O=C(c1cc(-c2ccc(F)cc2)nc2ccccc12)N1CCCC1c1nc(C2CCOCC2)no1 (stereo unspecified)	inconclusive: 56.2 µM [inhibitor, partial curve, poor fit]		
O=C(Cn1nc(-c2ccco2)ccc1=O)NC1CCCc2c1[nH]c1ccccc21 (stereo unspecified)	inconclusive: 14.1 µM [inhibitor, full curve, poor fit]		
O=C1NCc2ccc(-c3cc4c(ccn4Cc4cccnc4)c(C4=CCOCC4)n3)cc21	inconclusive: 112 µM [inhibitor, partial curve, poor fit]		
CCn1cc(C(=O)N2CC(=O)N(CCc3ccccc3)CC(OCc3cccc(OC)c3)C2)cn1 (stereo unspecified)		inactive: -22.5%	
O=[N+]([O-])c1cccc(-c2noc([C@@H]3C[C@@H](O)CN3Cc3ccccc3O)n2)c1	inconclusive: 100 µM [inhibitor, partial curve, poor fit]		
CN1CC(=O)N(c2ccccc2F)Cc2c(NCCCc3ccccc3)ncnc21	inconclusive: 50.1 µM [inhibitor, partial curve, poor fit]		
CN1CCC(C(=O)N2Cc3ccccc3CC3(CCN(Cc4cccnc4)C3)C2)CC1 (stereo unspecified)	inconclusive: 79.4 µM [inhibitor, partial curve]		
Cn1ccnc1C(=O)N1CCC(N2C(=O)C3(CCCC3)C2c2ccccc2)CC1 (stereo unspecified)		inactive: -8.3%	
Cc1ccccc1Nc1n[nH]c(C(O)c2cccc(C(F)(F)F)c2)n1 (stereo unspecified)	inconclusive: 126 µM [inhibitor, single point]		
Cc1noc2c(N3CCN(Cc4ccccc4)CC3)cc(-c3cccnc3)nc12	active: 63.1 µM		
O=C(NC1CCC(O)CC1)c1ccc2c(c1)OCCN(c1ccccc1)C2 (stereo unspecified)	inconclusive: 25.1 µM [inhibitor, full curve]		
CCn1cc(-c2ccc(C)cc2)cc1C(=O)NCCCN1CCOCC1	inconclusive: 50.1 µM [inhibitor, partial curve, poor fit]		
Cc1cc(C)n(CCC(=O)NCC2CCN(c3cc(-c4ccccc4)[nH]n3)CC2)n1		inactive: -5.75%	
O=C1CC2(CCN(C(=O)c3ccc(Cl)cc3)C2)Nc2ccccc2N1 (stereo unspecified)		inactive: -22.6%	
c1ccc(CN2CCC[C@H]2c2nc(-c3ccc(-n4ccnc4)nc3)no2)cc1	active: 89.1 µM		

Structure (SMILES)	Potency	activity change, negative = cytotoxicity	outcome
O=C(NCC1CCCO1)c1ccc(-c2ccc(N3CCSCC3)nc2)cc1 (stereo unspecified)	inconclusive: 44.7 µM [inhibitor, partial curve, poor fit]		
O=C1NC2(CCN(Cc3ccncc3)CC2)Oc2ccccc21	inconclusive: 39.8 µM [inhibitor, partial curve, poor fit]		
O=C1NCCCCCCN(Cc2cccc(OC(F)(F)F)c2)[C@H]2CCC[C@@H]12	inconclusive: 50.1 µM [inhibitor, partial curve, poor fit]		
O=C(NC1CCCCC1)[C@@H]1C[C@@H](O)CN1C1CCN(C(=O)c2ccncc2)CC1			inactive
COc1ccccc1-c1ccc(C(=O)N2CCC(N[S+](C)(=O)[O-])CC2)cc1		inactive: -19.8%	
CCOC(=O)[C@@H]1[C@@H](OC)C(=O)N(Cc2ccccc2)C12CCN(C(=O)C1CCC1)CC2		inactive: -1.53%	
CC(C)c1nn(C)c2c1C(c1cccc3c1OC(C)(C)C3)CC(=O)N2 (stereo unspecified)	inconclusive: 89.1 µM [inhibitor, single point]		
C[S+](=O)([O-])c1ccc(-c2nc(C(=O)NCCc3ccc(Cl)cc3)n3ccncc23)cc1		inactive: -19%	
Cc1ccc(CN2CCCn3nc(C)c(-c4ccccc4-c4ccccc4)c32)o1	inconclusive: 56.2 µM [inhibitor, full curve, poor fit]		
COCC1CN(C2CCC2)CC12CCN(C(=O)COc1ccccc1)CC2 (stereo unspecified)	inconclusive: 50.1 µM [inhibitor, partial curve, poor fit]		
C[S+](=O)([O-])CCn1ncc2cc(OCC3CCN(C(=O)c4cccc(F)c4F)CC3)ccc21	inconclusive: 44.7 µM [inhibitor, partial curve]		
CN1c2cc(C(=O)NC3CCCC3)ccc2C(=O)N2CCCCC21 (stereo unspecified)	inconclusive: 31.6 µM [inhibitor, full curve]		
C[C@H](O)c1onc(-c2ccccc2)c1C(=O)NC1CCCCC1		inactive: -18.3% [at 172 µM]	
CN1CCC(C(=O)N2CC(F)(F)C[C@H]2c2nc(C3CC3)no2)CC1		inactive: 1.09%	
CCC1(C(=O)NC2CCCCC2)CCCCC(=O)N1 (stereo unspecified)	inconclusive: 39.8 µM [inhibitor, single point]		
CCc1ccc(CNC(=O)C2CCN(C(=O)c3nnn4c3COC(c3ccc(C)cc3)C4)CC2)cc1 (stereo unspecified)		inactive: -15.9%	
COc1cc(CN2C[C@@H]3C(=O)N(Cc4ccc5c(c4)OCO5)C(=O)[C@@H]3C2)cc(OC)c1	inconclusive: 89.1 µM [inhibitor, single point]		
O=C(Nc1ccnn1C1CCN(C(=O)CCCc2ccccc2)CC1)c1cccc(F)c1	inconclusive: 39.8 µM [inhibitor, full curve, poor fit]		
Cc1cc(C(F)(F)F)nn1CC(=O)NCCn1c(C)cnc1C1CCC1		inactive: 4.9%	
CN(C)C(=O)N1CCN(Cc2ccccc2-c2ccccc2F)CC1	inconclusive: 50.1 µM [inhibitor, partial curve, poor fit]		
COc1cccc(CNC(=O)c2ccc3oc(-c4ccncc4)nc3c2)c1		inactive: -25.6%	
CC(C)Cc1cc(CNC(=O)Nc2nnc(C(C)(C)C)s2)on1	active: 44.7 µM		

Structure (SMILES)	Potency	activity change, negative = cytotoxicity	outcome
Cc1ccc(C(=O)N2CCC(Oc3ccc(C(=O)N4CCOCC4)cn3)CC2)cc1		inactive: -34.6%	
COc1cc(CN2CCC(C)(NC(C)=O)CC2)cc(NCc2ccccc2)c1	inconclusive: 100 µM [inhibitor, partial curve]		
C/C=C/CN1C[C@@H](NC(=O)c2cccc(N(C)C)c2)C[C@H]1C(=O)NCC		inactive: -15%	
COc1ccccc1Nc1ccnc(N2CCN(C(=O)NC(C)C)CC2)n1	inconclusive: 39.8 µM [inhibitor, partial curve]		
COCCNC(=O)CC(c1ccc(Cl)cc1)c1c[nH]c2ccc([N+](=O)[O-])cc12 (stereo unspecified)	active: 39.8 µM		
Cc1ccc(Nc2ccnc(N3CCC(NC(=O)c4ccc(F)cc4)CC3)n2)cc1	inconclusive: 50.1 µM [inhibitor, partial curve, poor fit]		
O=C(c1ccc2c(c1)OCO2)N1CC2(C1)C(=O)Nc1ccccc12			inactive
CCc1nc2c(NC(=O)NCCc3ccccc3)cccn2n1	inconclusive: 79.4 µM [inhibitor, partial curve, poor fit]		
COc1ccc(CC(=O)N2CCc3nc(C4CC4)nc(-c4ccc(O)cc4)c3CC2)cc1		inactive: -15.7%	
Cc1ccc(CN2Cc3[nH]cnc3C[C@H]2C(=O)N2CCC(Cc3ccccc3)CC2)cc1	inconclusive: 63.1 µM [inhibitor, partial curve, poor fit]		
Cc1cc2cc(-c3c(C)noc3C)nc(N3CCN(C)C(=O)C3)c2o1	inconclusive: 70.8 µM [inhibitor, partial curve, poor fit]		
C[S+](=O)([O-])N1Cc2ccccc2CC2(CCCN2Cc2ccccc2)C1 (stereo unspecified)	inconclusive: 50.1 µM [inhibitor, partial curve, poor fit]		
CC(C)C(=O)N1Cc2ccccc2CC2(CCN(CC3CCNC3)CC2)C1 (stereo unspecified)	inconclusive: 70.8 µM [inhibitor, single point]		
O=C(NCCc1ccc(Cl)cc1)C1CCCN1c1nc2ncccc2o1 (stereo unspecified)	inconclusive: 39.8 µM [inhibitor, partial curve]		
CC(=O)N1CCN(Cc2nc3c(n2Cc2ccccc2)C(=O)N(Cc2cccc(Cl)c2)CCN3)CC1	inconclusive: 56.2 µM [inhibitor, partial curve, poor fit]		
O=C(CC1CCCC1)N1CCCC(Cc2nc(C3CCOCC3)no2)C1 (stereo unspecified)	inconclusive: 44.7 µM [inhibitor, partial curve, poor fit]		
COC1=C(C(=O)OCc2ccccc2)N(c2c(C)cccc2C)[S+](=O)([O-])c2ccccc21	inconclusive: 12.6 µM [inhibitor, full curve, poor fit]		
COc1cccc(C(=O)N2CCCC(n3cc(-c4nc(C5CC5)no4)nn3)C2)c1 (stereo unspecified)	inconclusive: 22.4 µM [inhibitor, full curve]		
O=C1NC(=NC2CCCC2)C2(CCN([S+](=O)([O-])c3cccc(C(F)(F)F)c3)C2)N1c1cccnc1 (stereo unspecified)	inactive		
O=C(Nc1ccccc1)[C@@H]1OCC(=O)N(C2CC2)[C@H]1c1ccccc1		inactive: -15.9%	
CCc1cccc(NC(=O)C2CCCCC(=O)N2)c1 (stereo unspecified)		inactive: 1.27%	
Cc1ccc([S+](=O)([O-])N2CCCC(C(=O)N3CCC(N4CCCC4=O)CC3)C2)cc1 (stereo unspecified)		inactive: -30.3%	

— PubChem BioAssay AID1345083 (National Center for Advancing Translational Sciences (NCATS), 2018)
